The list shows a part of the results. Shown are side measurements of this screen, not its main read-out; they come without a call. The list favours compounds with an active or inconclusive main result. Words in brackets tell the shape of the fitted curve; partial curves, single points and poor fits give uncertain potencies.
Assay: Confirmation and Secondary Assays for Modulators of Hemoglobin Beta Chain Splicing at IVS2 654 and 705 loci
Settings: HeLa beta-globin IVS2-654 splicing GFP reporter, 48 h
Description: NIH Chemical Genomics Center [NCGC]
NIH Molecular Libraries Screening Centers Network [MLSCN]
PI Name: Dr. Ryszard Kole
Modulation of Alternative Splicing as Therapy
Abnormal splicing is associated with a number of diseases, including cancer and genetic diseases such as cystic fibrosis, muscular dystrophy and beta-thalassemia. Alteration of disease associated splicing patterns provides a promising target for treatment. […] Mutations in the second intron of the b-globin gene at positions 654 or 705 are clinically relevant and cause mis-splicing which results in an out of frame gene product.
EGFP-654 HeLa Cells as screen system.
(§1) HeLa cell lines were stably transfected with a construct in which the EGFP (enhanced green fluorescent protein) cDNA was interrupted by the second intron of the beta-globin gene (IVS2-654). The ISV2 intron contains mutations which cause mis-splicing of EGFP and premature termination of EGFP which results in a nonfluorescent protein product. […] Expression of the transgene was driven by the CMV promoter. We concluded that a low molecular weight compound, which restored correct splicing of intron 2 would also generate functional EGFP protein, resulting in a fluorescent signal. Thus, the HeLa cells that express the EGFP-654 construct can be used for high throughput screening of a chemical library.
EGFP-705 HeLa Cells as screen system.
as §1, with “(IVS2-705).” for “(IVS2-654).”, “EGFP-705” for “EGFP-654”, “validation of splice site specificity of compounds identified in primary” for “high throughput”, “the ISV2 654 construct.” for “a chemical library.”
NCGC Assay Protocol Summary:
Confirmatory Screening. Freshly thawed HeLa EGFP-654 or EGFP-705 cells were seeded in 5 ul of optimem media (Invitrogen) containing 2 % fetal calf serum (Hyclone) and 1x penicillin/streptomycin (Invitrogen) at a concentration of 500 cells per well in 1536-well plates. Cells were incubated overnight at 37C in 5% CO2. The next day, cells were treated with DMSO, 500 nM antisense ISV2 654 (or 705) PNA control oligo, or library compound and allowed to grow at 37C in 5% CO2 for 2 days. The PNA oligo blocked the mutation site in the intron and allowed proper (wild type) splicing to occur, resulting in full length EGFP expression and also allowed for optimization of the assay parameters. Plates were read in the Acumen Explorer (TTP Labtech) using 488 nm laser excitation and 500-520 nm emission PMT filter in a 1 x 8 uM capture mode, and were read immediately after compound pinning (beta-globin-654-gfp-0hr), at 24 hours (beta-globin-654-gfp-24hr and beta-globin-705-gfp-24hr), and at 48 hours (beta-globin-654-gfp-48hr and beta-globin-705-gfp-48hr). Fluorescnet objects ranging in size from 5 to 250 uM were measured and the total peak GFP intensity for each well was used for data analysis. Cell death was measured by quantitating protease release by sick and dying cells using Promega's luminescent Cytotox-Glo reagent. Cells were treated with 2ul of Cytotox- Glo reagent incubated at room temperature for 5 minutes and read in the Viewlux plate reader with a 30 second integration time (beta-globin-654-protease-48hr and beta-globin-705-protease-48hr).
Keywords: Thalassemia, beta-thalassemia, beta-globin, EGFP, ISV2 654, ISV2 705, SSO, PNA, antisense, splicing, MLSMR, MLSCN, NIH Roadmap, qHTS, NCGC

[1] = measured here: IVS2-654 protease reporter 48 h
[2] = measured here: IVS2-705 GFP reporter 24 h
[3] = measured here: IVS2-705 GFP reporter 48 h
[4] = measured here: IVS2-705 protease reporter 48 h

For Nc1nc(=S)c2[nH]cnc2[nH]1, the AC50 [1] was 1.26 µM [rising, full curve], the AC50 [2] was 14.1 µM [rising, full curve] and the AC50 [3] was 7.08 µM [rising, full curve]. For the same compound, the AC50 [4] was 1.41 µM [rising, full curve].

With OCC1OC(n2cnc3c(=S)nc[nH]c32)C(O)C1O (configuration not stated) the AC50 [1] was 2.24 µM [rising, full curve] and the AC50 [3] was 2 µM [rising, full curve].

For CCn1c(C)nc([N+](=O)[O-])c1Sc1ncnc2nc[nH]c12, the AC50 [1] was 3.16 µM [rising, full curve] and the AC50 [3] was 3.16 µM [rising, full curve].

For CSc1ncnc2c1ncn2C1OC(CO)C(O)C1O (configuration not stated), the AC50 [1] was 3.98 µM [rising, full curve] and the AC50 [4] was 7.94 µM [rising, full curve].

In the case of Nc1nc2n[nH]nc2c(=O)[nH]1, the AC50 [1] is reported as 7.08 µM [rising, full curve], the AC50 [2] is reported as 31.6 µM [rising, single point] and the AC50 [3] is reported as 7.94 µM [rising, full curve].

For Nc1nc(Cl)nc2c1ncn2[C@@H]1O[C@H](CO)[C@@H](O)[C@H]1O, the AC50 [1] was 31.6 µM [rising, single point].

For Nc1nc(=S)c2ncn([C@H]3O[C@@H](CO)[C@@H](O)[C@@H]3O)c2[nH]1, the AC50 [1] was 2.24 µM [rising, full curve], the AC50 [2] was 12.6 µM [rising, full curve] and the AC50 [3] was 4.47 µM [rising, full curve]. The AC50 [4] was 1.58 µM [rising, full curve, poor fit].

In the case of Cn1cnc([N+](=O)[O-])c1Sc1ncnc2nc[nH]c12, the AC50 [1] is reported as 2.24 µM [rising, full curve] and the AC50 [3] is reported as 3.55 µM [rising, full curve].

In the case of S=C1NC=NC2N=CNC12 (configuration not stated), the AC50 [1] is reported as 2 µM [rising, full curve] and the AC50 [3] is reported as 2 µM [rising, full curve].

Reference: PubChem BioAssay AID1405 (National Center for Advancing Translational Sciences (NCATS), 2008)
